Experimental data as given in PubChem BioAssay (NCATS).
Inconclusive means that the source gave no clear call. Such entries were picked first, then a sample of the others. For part of these data: No potency is given beside an inconclusive call; the fits are too rough. Active and inactive are the calls of the source. Unless noted, the call rests on the fitted dose curve; in most records, active means well fitted curve in either direction with a large enough effect (not every such curve was filed as active); inconclusive means small, poorly fitted or top-dose-only effect, or another doubt; inactive means flat fitted curve, though single readings scatter.

Legend:
[1] = NFAT Signaling Pathway (AID 444); conditions: Jurkat NFAT-bla M1, carbachol, beta-lactamase ratio, 5 h; at 7.69 µM (top of the series) unless noted;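 further: carbachol stimulus at about its EC50 of 1 µM final; on the % scale 0 is the no-effect control and ±100 the full control effect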
Method in brief: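 Jurkat cells carrying an NFAT-driven β-lactamase reporter and co-transfected muscarinic M1 receptor were treated with compound plus carbachol (1 uM final, an EC50 level) for 5 h at 37 °C. CCF4 loading followed for 1 h at RT; 460/530 nm ratio gave %activity.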

[2] = target: 3',5'-cyclic-AMP phosphodiesterase 4B (Homo sapiens) (UniProt Q07343); test: qHTS Assay for Inhibitors of PDE-IV (AID 607; active means well fitted activation curve with a large enough effect in the main read-out, with a control signal flat, not every such curve was filed as active; inconclusive means small, poorly fitted or top-dose-only effect, or effect the other way, or a change in a side signal; further: potency means the concentration at half of the fitted maximal effect; on activation (PDE inhibition): % of control where 0% means no effect); conditions: HEK293 ACTOne CNG channel cells, membrane potential fluorescence; activation (PDE inhibition): at 22.9 µM (top of the series)
UniProt Q07343, sequence (Q07343 whole entry, looked up): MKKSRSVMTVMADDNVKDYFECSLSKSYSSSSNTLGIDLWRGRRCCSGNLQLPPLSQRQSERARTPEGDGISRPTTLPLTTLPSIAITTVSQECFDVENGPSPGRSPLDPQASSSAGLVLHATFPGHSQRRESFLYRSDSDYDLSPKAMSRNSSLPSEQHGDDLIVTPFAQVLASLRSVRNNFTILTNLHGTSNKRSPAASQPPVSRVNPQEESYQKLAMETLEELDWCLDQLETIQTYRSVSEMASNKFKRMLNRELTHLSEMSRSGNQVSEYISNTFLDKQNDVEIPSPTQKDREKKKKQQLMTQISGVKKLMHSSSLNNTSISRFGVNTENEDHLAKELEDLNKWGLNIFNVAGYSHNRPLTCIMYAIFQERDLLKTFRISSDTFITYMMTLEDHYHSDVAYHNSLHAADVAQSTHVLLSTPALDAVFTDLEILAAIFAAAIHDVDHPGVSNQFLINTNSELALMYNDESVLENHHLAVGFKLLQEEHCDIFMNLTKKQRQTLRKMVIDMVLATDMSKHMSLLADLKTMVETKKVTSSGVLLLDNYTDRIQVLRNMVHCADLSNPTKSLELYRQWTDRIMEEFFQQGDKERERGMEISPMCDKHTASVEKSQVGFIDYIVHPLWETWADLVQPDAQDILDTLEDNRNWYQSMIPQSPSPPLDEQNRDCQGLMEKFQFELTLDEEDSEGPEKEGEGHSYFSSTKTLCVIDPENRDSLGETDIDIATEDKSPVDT
Method in brief: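 The readout is membrane depolarisation from a cAMP-sensing CNG channel, detected with a potential dye at ex 535/em 590. Cells were HEK293-derived (endogenous PDE-IV) at 1000 cells/well, titrated up to 22.9 uM final.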

[3] = target: Dual specificity protein kinase CLK4 (Homo sapiens) (UniProt Q9HAZ1); test: qHTS Assay for Inhibitors of CDC-like Kinase 4 (ADP-FP Assay) (AID 1795; active means well fitted curve in the direction sought with a large enough effect; inconclusive means small, poorly fitted or top-dose-only effect, or another doubt; inactive means no such curve, though single readings can be large; an effect the other way counts as inactive or inconclusive;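 further: recombinant human CLK4 phosphorylating RS repeat peptide at 1 µM ATP; potency means the concentration at half of the fitted maximal effect; nearly all actives have a fitted effect of over 60% in size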)
UniProt Q9HAZ1, sequence (Q9HAZ1 whole entry, looked up): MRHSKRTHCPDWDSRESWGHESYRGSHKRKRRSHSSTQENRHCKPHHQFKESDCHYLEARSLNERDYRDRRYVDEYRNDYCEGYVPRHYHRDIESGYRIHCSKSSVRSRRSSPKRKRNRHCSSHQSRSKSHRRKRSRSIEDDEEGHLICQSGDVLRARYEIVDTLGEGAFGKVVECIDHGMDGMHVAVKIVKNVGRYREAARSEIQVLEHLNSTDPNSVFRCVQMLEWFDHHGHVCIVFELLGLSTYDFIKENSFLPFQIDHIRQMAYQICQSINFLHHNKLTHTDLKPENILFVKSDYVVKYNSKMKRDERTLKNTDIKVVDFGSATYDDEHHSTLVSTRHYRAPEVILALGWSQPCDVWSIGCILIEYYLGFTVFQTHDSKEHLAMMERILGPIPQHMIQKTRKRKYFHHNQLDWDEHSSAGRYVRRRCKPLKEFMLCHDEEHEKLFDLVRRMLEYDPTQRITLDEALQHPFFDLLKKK
Method in brief: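 Kinase activity was followed as ADP output, converted from fluorescence polarization with a calibration curve. Reactions ran one hour at low ATP (1 uM) with RS peptide substrate.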

[4] = Primary qHTS for small molecule stabilizers of the endoplasmic reticulum resident proteome: Secreted ER Calcium Modulated Protein (SERCaMP) assay (AID 1508630; active means well fitted curve in the direction sought with a large enough effect; inconclusive means small, poorly fitted or top-dose-only effect, or another doubt; inactive means no such curve, though single readings can be large; an effect the other way counts as inactive or inconclusive; further: potency means the concentration at half of the fitted maximal effect); conditions: SH-SY5Y GLuc-SERCaMP (Gaussia luciferase released on ER calcium loss) secretion, thapsigargin, luminescence; activity change, negative = inhibition: at 38.4 µM (top of the series) unless noted
Method in brief: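 The SH-SY5Y reporter protocol was run at 3 concentrations up to 38.3 uM (primary) or 11 concentrations (follow-up): 16 h compound, 100 nM thapsigargin for 4 h, then extracellular luciferase luminescence.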

[5] = target: Mitogen-activated protein kinase 10 (Mus musculus) (UniProt Q61831); test: JNK3 AlphaScreen Assay (AID 530); conditions: JNK3 lysate, c-Jun phosphorylation; activity change, negative = inhibition: at 57.1 µM (top of the series);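 further: kinase came from lysate of stimulated human HepG2 cells; signal reports phosphorylation of biotinylated GST-cJun 1-79 at Ser73 with 10 µM ATP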; further: potency means the concentration at half of the fitted maximal effect; on activity change, negative = inhibition: on the % scale 0 is the no-effect control and ±100 the full control effect
Method in brief: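 Phosphorylation of biotinylated GST-cJun(1-79) at Ser73 is measured by AlphaScreen proximity luminescence. Enzyme is JNK3 in HepG2 lysates activated with interleukin-1beta and tumor necrosis factor alpha; ATP is 10 uM final.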

[6] = AP1 Signaling Pathway (AID 357); conditions: ME-180 AP-1-bla reporter, EGF-induced, beta-lactamase ratio, 5 h; at 7.69 µM (top of the series) unless noted;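 further: ME-180 reporter cells stimulated with EGF at its EC50 level; top concentration of the series differs between compounds; on the % scale 0 is the no-effect control and ±100 the full control effect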
Method in brief: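 Titration-series screen for positive or negative modulators of EC50 EGF-induced signaling in ME-180 cells carrying an AP-1-driven beta-lactamase reporter. After 5 hours at 37 degrees Celsius, CCF4 460nm/530nm emission ratio gave %Activity; AC50 values derived.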

[7] = Stat Signaling Pathway (AID 446); conditions: ME-180 SIE beta-lactamase reporter, IL-6 stimulated, 5 h; at 7.69 µM (top of the series) unless noted;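 further: ME-180 cervical cancer cells given 40 pM IL-6 alongside compound; SIE-controlled beta-lactamase reporter measured as 460/530 nm FRET emission ratio; top concentration of the series differs between compounds; on the % scale 0 is the no-effect control and ±100 the full control effect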
Method in brief: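 Emission at 460 and 530 nm (excitation 405 nm) reports SIE-controlled beta-lactamase in ME-180 cells. Cells received compound with 40 pM IL-6 for 5 hrs at 37 C; data scaled between 300 pM IL-6 and 125 nM JAK-inhibitor controls.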

[8] = qHTS Assay for Identification of Small Molecule Agonists for Hypoxia Response Element Signaling Pathway (AID 914; active means well fitted activation curve with a large enough effect in the signal ratio, with a control signal flat, not every such curve was filed as active; inconclusive means small, poorly fitted or top-dose-only effect, or effect the other way, or a change in a side signal; the % refers to the signal ratio; further: potency means the concentration at half of the fitted maximal effect; on activation: top concentration of the series differs between compounds; % of control where 0% means no effect); conditions: ME-180 (cervical carcinoma) HRE-bla reporter, beta-lactamase ratio, CoCl2, 17 h; activation: hits give high values
Method in brief: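 AC50 values come from titration-series %Activity, taken as the 460/530nm ratio of CCF4 fluorescence (excitation 405nm). CellSensor HRE-bla ME-180 cells were treated 17 hours at 37 C with compound plus an EC50 level of CoCl2.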

[9] = target: Cytochrome P450 1A2 (Homo sapiens) (UniProt P05177); test: p450-cyp1a2 (AID 410; calls by dose curve; further: potency means the concentration at half of the fitted maximal effect;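 on activity change, negative = inhibition: top concentration of the series differs between compounds; -100% = full effect of reference inhibitor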)
UniProt P05177, sequence (P05177 whole entry, looked up): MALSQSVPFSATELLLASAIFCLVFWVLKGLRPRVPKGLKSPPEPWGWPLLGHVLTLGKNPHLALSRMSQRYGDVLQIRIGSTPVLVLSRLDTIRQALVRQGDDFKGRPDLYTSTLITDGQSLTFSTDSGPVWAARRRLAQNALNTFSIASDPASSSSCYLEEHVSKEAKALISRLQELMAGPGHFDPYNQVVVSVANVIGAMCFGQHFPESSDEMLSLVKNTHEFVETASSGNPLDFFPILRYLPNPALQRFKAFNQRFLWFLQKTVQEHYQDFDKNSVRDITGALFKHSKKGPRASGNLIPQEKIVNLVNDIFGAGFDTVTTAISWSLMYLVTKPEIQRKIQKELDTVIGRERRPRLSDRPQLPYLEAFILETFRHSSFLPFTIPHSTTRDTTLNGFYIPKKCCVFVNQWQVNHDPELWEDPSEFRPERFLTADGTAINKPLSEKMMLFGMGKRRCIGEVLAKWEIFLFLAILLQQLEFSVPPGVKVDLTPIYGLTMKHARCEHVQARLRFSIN
Method in brief: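 Luminescent demethylation readout: Luciferin-ME (100uM, equal to Km) turned over by 20nM CYP1A2 for 60 min at room temperature after NADPH regeneration addition, following 10 min compound preincubation. Normalization used 57 uM furafylline as full inhibition.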

[10] = target: Cytochrome P450 3A4 (Homo sapiens) (UniProt P08684); test: qHTS Assay for Activators of Cytochrome P450 3A4 (AID 885; active means well fitted curve in the direction sought with a large enough effect; inconclusive means small, poorly fitted or top-dose-only effect, or another doubt; inactive means no such curve, though single readings can be large; an effect the other way counts as inactive or inconclusive; further: potency means the concentration at half of the fitted maximal effect; nearly all actives have a fitted effect of over 65% in size)
UniProt P08684, sequence (P08684 whole entry, looked up): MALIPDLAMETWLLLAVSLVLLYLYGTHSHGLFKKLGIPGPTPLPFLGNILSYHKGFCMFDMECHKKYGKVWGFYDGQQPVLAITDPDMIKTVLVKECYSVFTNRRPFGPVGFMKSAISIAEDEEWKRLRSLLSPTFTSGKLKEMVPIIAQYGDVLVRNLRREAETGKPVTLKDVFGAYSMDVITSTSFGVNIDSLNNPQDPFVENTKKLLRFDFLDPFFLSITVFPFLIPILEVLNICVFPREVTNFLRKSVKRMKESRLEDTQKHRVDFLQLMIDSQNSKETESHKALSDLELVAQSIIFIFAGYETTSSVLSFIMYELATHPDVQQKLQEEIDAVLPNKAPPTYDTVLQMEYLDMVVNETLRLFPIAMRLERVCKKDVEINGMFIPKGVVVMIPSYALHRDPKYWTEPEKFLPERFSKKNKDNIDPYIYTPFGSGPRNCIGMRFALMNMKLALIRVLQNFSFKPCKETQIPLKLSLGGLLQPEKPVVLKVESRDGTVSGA
Method in brief: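 Activators are scored by enhanced luminescence from CYP3A4 conversion of luciferin-PPXE (25uM, equal to KM) to luciferin, after 60 min at RT with an NADPH-regenerating system.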
Tags describe the fitted curve by direction and shape or compound fluorescence and quenching.

## COc1ccc2[nH]cc(CCNc3cc(-c4cccc(C#N)c4)ncn3)c2c1
[1]
  activity change, negative = inhibition: inconclusive: 35.9% [activator]
[2]
  Potency: inactive
[3]
  Potency: inconclusive [falling, partial curve]
[4]
  Potency: inconclusive [inhibitor, single point]

## Clc1ccccc1-c1nc(NC2CCNCC2)c2ccccc2n1
[5]
  Potency: inactive
[3]
  Potency: active: 12.6 µM
[4]
  Potency: inconclusive [inhibitor, partial curve, poor fit]

## COc1ccccc1CNc1ccnc(-c2cccnc2)n1
[1]
  activity change, negative = inhibition: inactive: -4.87%
[5]
  Potency: inactive
[3]
  Potency: inconclusive [falling, single point]
[4]
  Potency: inconclusive [inhibitor, single point]

## COc1ccc(Oc2ncc3ncc(=O)n(Cc4cccs4)c3n2)cc1
[6]
  activity change, negative = inhibition: inactive: -29.2%
[4]
  Potency: inactive

## COc1ccc(CNc2cc(-c3cccc(NS(C)(=O)=O)c3)ncn2)c(OC)c1
[6]
  activity change, negative = inhibition: inconclusive: -46.7% [inhibitor]
[4]
  Potency: inconclusive [inhibitor, single point]

## CN1CCN(c2ncc3nc(-c4cccs4)c(=O)n(CCc4ccccc4)c3n2)CC1
[6]
  activity change, negative = inhibition: inconclusive: 89.1% [activator]
[1]
  activity change, negative = inhibition: inconclusive: 87.4% [activator]
[7]
  activity, negative = inhibition: inconclusive: 91.2% [activator]
[5]
  Potency: inconclusive [activator, full curve, poor fit]
[8]
  Potency: active: 3.16 µM
[4]
  Potency: inconclusive [inhibitor, single point]

## O=c1cnc2cnc(N3CCNCC3)nc2n1CCc1ccccc1
[6]
  activity change, negative = inhibition: inactive: -5.27%
[1]
  activity change, negative = inhibition: inconclusive: -50.9% [inhibitor]
[4]
  Potency: inconclusive [inhibitor, single point]

## O=S(=O)(c1ccccc1)N1CCC2(CCN(Cc3ccncc3)CC2)CC1
[6]
  activity change, negative = inhibition: inactive: -0.758%
[9]
  Potency: inactive
[1]
  activity change, negative = inhibition: inconclusive: -71.6% [inhibitor]
[4]
  Potency: inactive

## O=C(c1cccc(F)c1)N1CCC2(CC1)CCN(c1ccncc1)CC2
[6]
  activity change, negative = inhibition: inconclusive: 33.5% [activator]
[9]
  Potency: inconclusive [decreasing]
[1]
  activity change, negative = inhibition: inconclusive: -77.3% [inhibitor]
[2]
  Potency: inconclusive [rising, partial curve]
[10]
  Potency: inconclusive [activator, partial curve]
[8]
  Potency: inconclusive [activator, single point]
[4]
  Potency: inactive

## CN(C)c1ccc(-c2cc(N(C)Cc3ccco3)ncn2)cc1
[6]
  activity change, negative = inhibition: inactive: -23.1%
[4]
  Potency: inconclusive [inhibitor, single point]

## CN1CCC2(CC1)CCN(C(=O)c1ccncc1)CC2
[6]
  activity change, negative = inhibition: inactive: 2.51%
[9]
  Potency: inactive
[1]
  activity change, negative = inhibition: inconclusive: -34.5% [inhibitor]
[8]
  activation: inactive: 7.12%
[4]
  Potency: inconclusive [inhibitor, partial curve, poor fit]

## O=c1c(-c2cccs2)nc2cnc(Oc3cccc(Cl)c3)nc2n1C1CC1
[6]
  activity change, negative = inhibition: inconclusive: 37.9% [activator]
[1]
  activity change, negative = inhibition: inconclusive: 76.9% [activator]
[7]
  activity, negative = inhibition: inconclusive: 72.5% [activator]
[2]
  Potency: inconclusive [activator, full curve, poor fit]
[8]
  Potency: active: 3.16 µM
[4]
  Potency: inconclusive [inhibitor, single point]

## COc1ncc2nc(-c3cc(F)cc(F)c3)c(=O)n(CCc3ccccc3)c2n1
[6]
  activity change, negative = inhibition: inconclusive: 35.6% [activator]
[1]
  activity change, negative = inhibition: inconclusive: 44.5% [activator]
[7]
  activity, negative = inhibition: inconclusive: 53.8% [activator]
[2]
  Potency: inconclusive [activator, full curve]
[8]
  Potency: inconclusive [activator, single point]
[4]
  Potency: inconclusive [inhibitor, partial curve, poor fit]

## O=c1c(-c2ccccc2)nc2cnc(N3CCOCC3)nc2n1-c1ccccc1
[6]
  activity change, negative = inhibition: inconclusive: 51% [activator]
[1]
  activity change, negative = inhibition: inconclusive: 86.9% [activator]
[7]
  activity, negative = inhibition: inconclusive: 109% [activator]
[5]
  Potency: inconclusive [activator, partial curve]
[8]
  Potency: active: 3.16 µM
[4]
  Potency: inconclusive [inhibitor, single point]
